The record followed here is patent US20200384061A1 (JCR PHARMACEUTICALS, published 2020).

The Kd is the concentration at which binding is half-saturated. For orientation: koff means a measure of how fast the partners let go of each other. What is called kon is a measure of how fast the partners come together.

Assay [1] addresses human TrkB (GenBank Acc. No. NP_001018074.1) expressed in CHO cells (CHO-TrkB cells) (human, UniProt Q16620 32-822). Kind of assay: cell-based or functional assay.
Assay [2] concerns the target T1, recombinant monkey TfR (r monkey TfR, Sino Biological Inc.), extracellular region of cynomolgus monkey TfR … (cynomolgus monkey (Macaca fascicularis), UniProt Q5RDH6 89-760 (Pongo abelii entry)).
T1 construct: not shown: histidine tag added to the N-terminus
T1 chain: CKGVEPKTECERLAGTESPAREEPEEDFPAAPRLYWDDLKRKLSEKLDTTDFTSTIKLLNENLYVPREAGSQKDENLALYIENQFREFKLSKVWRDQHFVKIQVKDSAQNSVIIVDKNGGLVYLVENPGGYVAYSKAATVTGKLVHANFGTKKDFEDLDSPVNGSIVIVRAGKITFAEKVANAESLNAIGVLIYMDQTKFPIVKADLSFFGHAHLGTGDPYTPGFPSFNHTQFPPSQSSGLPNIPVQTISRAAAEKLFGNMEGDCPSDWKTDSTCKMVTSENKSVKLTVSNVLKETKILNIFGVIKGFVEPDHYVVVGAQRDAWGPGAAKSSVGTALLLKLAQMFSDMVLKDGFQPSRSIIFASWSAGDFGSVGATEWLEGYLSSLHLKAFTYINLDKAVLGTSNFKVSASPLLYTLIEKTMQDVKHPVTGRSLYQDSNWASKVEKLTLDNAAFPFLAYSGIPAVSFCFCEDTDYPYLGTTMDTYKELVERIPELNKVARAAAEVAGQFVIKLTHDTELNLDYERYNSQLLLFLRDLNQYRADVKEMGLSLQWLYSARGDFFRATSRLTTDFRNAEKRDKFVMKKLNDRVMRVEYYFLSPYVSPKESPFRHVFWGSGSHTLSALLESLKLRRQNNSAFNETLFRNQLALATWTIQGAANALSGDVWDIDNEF
The assay is described as follows: BLI (OctetRED96); His-tagged TfR extracellular region loaded on Ni-NTA biosensor, antibody in solution. The protocol: (§1) The affinity of the anti-hTfR antibody to human TfR and monkey TfR were measured on OctetRED96 (ForteBio Corporation, a division of Pall Corporation), a analysis system for biomolecular interaction utilizing Biolayer Interferometry (BLI). The basic principles of the biolayer interferometry are briefly explained below. When light of a specific wavelength is projected down toward the layer of immobilized biomolecules on the surface of sensor chip, lights reflect from each two layers of biomolecule and internal reference, produce interference wave of the light. As molecules in a analyte sample bind to biomoleculer of a sensor chip surface, the thickness of a layer at a sensor tip increases, which results in a shift of interference wave. By measuring a change in the wavelength shift, quantitation of number of molecules bound to biomolecules immobilized onto the sensor chip surface and kinetics analysis of it can be performed in real time. The measurement was generally performed by operation manual attached to the OctetRED96. As human TfR, a recombinant human TfR (r human TfR: Sino Biological Inc.) was used, which had the amino acid sequence of the extracellular region of hTfR, i.e. the cysteine residue at the 89th position from the N-terminus to the phenylalanine at the C-terminus of the amino acid sequence set forth as SEQ ID NO: 1, with a histidine tag added to the N-terminus. As monkey TfR, a recombinant monkey TfR (r monkey TfR: Sino Biological Inc.) was used, which had the amino acid sequence of the extracellular region of a cynomolgus monkey, i.e. the cysteine residue at the 89th position from the N-terminus to the phenylalanine of the C-terminus of the amino acid sequence set forth as SEQ ID NO: 2, with a histidine tag added to the N-terminus.
(§2) After OctetRED96 was run under the condition shown in the following Table 2 to collect data, the binding interaction curve was fitted to a 1:1 binding model or to a 2:1 binding model using the analysis software attached to the OctetRED96, the association rate constant (kon) and the dissociation rate constant (koff) of anti-hTfR antibody to r human TfR and r monkey TfR were measured, and the dissociation constants (KD) were calculated. The measurement was performed at 25° C. to 30° C.

Assay [3] concerns the target T2, recombinant human TfR (r human TfR, Sino Biological Inc.), extracellular region of hTfR with N-terminal … (human, UniProt P02786).
T2 construct: also called r human TfR-ECD (Histag); recombinant hTfR; not shown: histidine tag added to the N-terminus
The assay is described as above. As for the experimental part: as §1, §2

UniProt Q16620, sequence (Q16620 32-822): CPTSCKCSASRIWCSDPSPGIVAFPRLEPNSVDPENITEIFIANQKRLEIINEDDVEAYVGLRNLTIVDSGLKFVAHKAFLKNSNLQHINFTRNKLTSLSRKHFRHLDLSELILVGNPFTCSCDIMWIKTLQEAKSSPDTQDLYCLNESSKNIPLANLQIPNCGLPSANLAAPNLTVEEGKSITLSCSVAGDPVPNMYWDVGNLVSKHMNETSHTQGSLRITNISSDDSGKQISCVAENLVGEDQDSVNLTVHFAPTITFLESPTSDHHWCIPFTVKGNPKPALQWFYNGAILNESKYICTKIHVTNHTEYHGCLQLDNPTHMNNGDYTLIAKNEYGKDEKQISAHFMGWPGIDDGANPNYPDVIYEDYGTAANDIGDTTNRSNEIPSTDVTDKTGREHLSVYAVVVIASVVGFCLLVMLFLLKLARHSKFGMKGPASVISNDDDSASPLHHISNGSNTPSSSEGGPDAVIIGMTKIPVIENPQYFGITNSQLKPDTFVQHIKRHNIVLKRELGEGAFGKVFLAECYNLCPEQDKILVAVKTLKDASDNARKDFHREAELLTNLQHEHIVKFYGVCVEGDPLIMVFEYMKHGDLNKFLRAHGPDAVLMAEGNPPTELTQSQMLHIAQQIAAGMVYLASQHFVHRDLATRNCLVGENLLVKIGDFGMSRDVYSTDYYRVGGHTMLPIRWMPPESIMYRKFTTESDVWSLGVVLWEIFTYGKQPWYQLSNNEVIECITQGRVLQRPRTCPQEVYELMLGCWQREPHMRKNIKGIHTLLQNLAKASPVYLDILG

B1: hBDNF-anti-hTfR antibody (3N) 2 (Fc fusion)
heavy: HSDPARRGELSVCDSISEWVTAADKKTAVDMSGGTVTVLEKVPVSKGQLKQYFYETKCNPMGYTKEGCRGIDKRHWNSQCRTTQSYVRALTMDSKKRIGWRFIRIDTSCVCTLTIKRGRGGGGSGGGGSGGGGSGGGGSGGGGS[human IgG1 Fc not listed]GGGGSGGGGSGGGGSGGGGSGGGGSEVQLVQSGAEVKKPGESLKISCKGSGYSFMNYWLGWVRQMPGKGLEWMGDIYPGGDYPTYSEKFKVQVTISADKSISTAYLQLSSLKASDTAMYYCARSGNYDEVAYWGQGTLVTVSSASTKGPSVFPLAPSSKSTSGGTAALGCLVKDYFPEPVTVSWNSGALTSGVHTFPAVLQSSGLYSLSSVVTVPSSSLGTQTYICNVNHKPSNTKVDKKVEPKSCDKTHT
light: DIVMTQTPLSLSVTPGQPASISCRSSQSLVHSNGNTYLHWYLQKPGQSPQLLIYKVSNRFSGVPDRFSGSGSGTDFTLKISRVEAEDVGVYYCSQSTHVPWTFGQGTKVEIKRTVAAPSVFIFPPSDEQLKSGTASVVCLLNNFYPREAKVQWKVDNALQSGNSQESVTEQDSKDSTYSLSSTLTLSKADYEKHKVYACEVTHQGLSSPVTKSFNRGEC
Regarding B1, the “BDNF activity (TrkB agonistic: EC50, nmol/L)” value in assay [1] was 0.2 nmol/L.

B2: Fc-Fab (3N), hFc-humanized anti-hTfR antibody (Fc fusion)
heavy: [human IgG1 Fc not listed]GGGGSGGGGSGGGGSGGGGSGGGGSEVQLVQSGAEVKKPGESLKISCKGSGYSFMNYWLGWVRQMPGKGLEWMGDIYPGGDYPTYSEKFKVQVTISADKSISTAYLQLSSLKASDTAMYYCARSGNYDEVAYWGQGTLVTVSSASTKGPSVFPLAPSSKSTSGGTAALGCLVKDYFPEPVTVSWNSGALTSGVHTFPAVLQSSGLYSLSSVVTVPSSSLGTQTYICNVNHKPSNTKVDKKVEPKSCDKTHT
light: DIVMTQTPLSLSVTPGQPASISCRSSQSLVHSNGNTYLHWYLQKPGQSPQLLIYKVSNRFSGVPDRFSGSGSGTDFTLKISRVEAEDVGVYYCSQSTHVPWTFGQGTKVEIKRTVAAPSVFIFPPSDEQLKSGTASVVCLLNNFYPREAKVQWKVDNALQSGNSQESVTEQDSKDSTYSLSSTLTLSKADYEKHKVYACEVTHQGLSSPVTKSFNRGEC
notes: Fab of No. 3N with a human IgG Fc region at the N-terminal side of the Fab heavy chain; no BDNF
For B2, in assay [2], the Kd was 861 pM, the koff is 0.000209 s⁻¹ and the kon amounted to 243000 M⁻¹ s⁻¹. In assay [3], the Kd is less than 1 pM, the koff was less than 1e-07 s⁻¹ and the on-rate (kon) turned out to be 667000 M⁻¹ s⁻¹.
